# Test results reported in PubChem BioAssay AID651820 (National Center for Advancing Translational Sciences (NCATS), 2012).
# The whole screen tested about 340,000 compounds, of which about 12,000 (3.5%) were called active. The inconclusive results got no clear call from the source; some entries with a clear call stand among them for comparison. Calls follow the shape of the dose curve; as a rule, active = well fitted inhibition curve with a large enough effect; inconclusive = small, poorly fitted or top-dose-only effect, or another doubt; inactive = no such curve, though single readings can be large or run the other way. No potency is given beside an inconclusive call; the fits are too rough.
# Assay: qHTS Assay for Inhibitors of Hepatitis C Virus (HCV)
# Details: Huh7.5.1 HCVcc-Cre (HCVcc is cell-culture hepatitis C virus) infection, luciferase reporter, 44 h; activity change, negative = inhibition: at 41.8 µM (top of the series) unless noted
# Procedure, shortened: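 Cells seeded at 1,000/well and cultured 4 h, then compounds added followed by HCVcc-Cre virus (~0.5 moi). After 44 h further culture, luciferase substrate was added, plates held 15 min at room temperature, and luminescence read for 15 sec.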
# % is scaled to controls: 0 for no effect and ±100 for the full control effect; potency is read from the fitted curve at half-maximal effect; tags tell the direction and shape of the fitted curve.
Compound,Potency,"activity change, negative = inhibition"
CSc1ncc(C(=O)Nc2ccc(C(C)=O)cc2)c(-c2ccccc2)n1,"inconclusive [inhibitor, single point]",
Cc1ccc(OCC(=O)Nc2nc(-c3ccccn3)cs2)c(C)c1,inactive,
Cc1ccc(CNC(=O)[C@H](C)N2C(=O)N3CCc4c([nH]c5ccccc45)[C@@]3(C)C2=O)cc1,"inconclusive [inhibitor, full curve, poor fit]",
CC(OC(=O)C1=COCCO1)C(=O)NC(C)c1ccc(Cl)cc1Cl (stereo not drawn),inactive,
COc1cc(C=O)c(Br)cc1OCC(=O)NCCc1ccccc1,inactive,
C[C@@H]1CN(S(=O)(=O)C(C)(C)C)[C@H](CCO)/C1=C\c1ccccc1,"inconclusive [inhibitor, partial curve]",
Cc1ccc(NC(=O)c2ccc(CSc3nccc(C)n3)cc2)cc1,"inconclusive [inhibitor, single point]",
CCN(CC)c1ccc(/C=N/NC(=O)c2ccc(Br)o2)cc1,"inconclusive [inhibitor, partial curve, poor fit]",
COc1ccc(N(CC(=O)N/N=C/c2cccc(OC)c2OC)S(=O)(=O)c2ccccc2)cc1,"inconclusive [inhibitor, single point]",
Cc1cc(C)c(C#N)c(SCc2nnc(-c3ccccc3)o2)n1,"inconclusive [inhibitor, partial curve, poor fit]",
CCn1c(SCC(=O)Nc2ccccc2)nc2c1c(=O)n(C)c(=O)n2C,inactive,
Cc1ccc(C)c(OCC(=O)Nc2ccc3c(c2)OCO3)c1C,active: 11.2 µM,
Cc1ccsc1/C=C(\C(=O)c1ccc(OC(C)C)cc1)c1nc2ccccc2o1,"inconclusive [inhibitor, partial curve]",
COc1ccc(NC(=O)C/C(C)=N/NC(=O)c2cccs2)c([N+](=O)[O-])c1,inactive,
CCOc1ccccc1NC(=O)c1cc(S(=O)(=O)NCc2ccco2)ccc1F,inactive,
O=C(CCN1C(=O)/C(=C/c2ccccc2)SC1=S)NNC(=O)c1ccncc1,inactive,
COc1ccc(N=Nc2cc(C)c(O)c(CN3CCCCC3)c2)cc1,inactive,
CCCCNC(=O)c1c(N)n(CCCOC)c2nc3ccccc3nc12,"inconclusive [inhibitor, partial curve, poor fit]",
CCNc1nc(NCC)n2c(SCC(=O)Nc3ccccc3Cl)nnc2n1,"inconclusive [inhibitor, single point]",
COc1ccc(S(=O)(=O)Nc2ccc3c(c2)C(=O)N([C@H](C)CO)C[C@H](C)[C@@H](CN(C)C(=O)Nc2ccc(C(F)(F)F)cc2)O3)cc1,"inconclusive [inhibitor, single point]",
COCCSc1nnc(NC(=O)CCS(=O)(=O)c2ccccc2)s1,"inconclusive [inhibitor, single point]",
COc1ccc(C(=O)NCCONC(=O)c2ccc(OC)cc2)cc1,inactive,
Cc1cnc(C(=O)Nc2cccc3cccnc23)cn1,"inconclusive [inhibitor, full curve, poor fit]",
CCCC(=O)NC(c1ccc(Cl)cc1Cl)c1ccc2cccnc2c1O (stereo not drawn),"inconclusive [inhibitor, full curve]",
COc1ccc2c(c1)nc(SCC(C)O)n2C (stereo not drawn),inactive,

Compound,Potency,"activity change, negative = inhibition"
O=c1c(S(=O)(=O)c2ccc(Cl)cc2)cn(Cc2ccccc2F)c2ccc(F)cc12,"inconclusive [inhibitor, full curve, poor fit]",
CCOC(=O)c1cn2nc(Oc3ccc(C)cc3)ccc2n1,inactive,
Cc1ccc(CC(=O)Nc2cccc([N+](=O)[O-])c2)cc1,inactive,
CCOC(=O)c1c(S(=O)(=O)Nc2cccc(-c3ccno3)c2)c(C)n(C)c1C,"inconclusive [inhibitor, single point]",
COc1ccc(C(=O)N/N=C/c2ccc(OC)c(CN3CCN(c4ccc(F)cc4)CC3)c2)cc1,"inconclusive [inhibitor, partial curve, poor fit]",
CCc1nnc(N/N=C/c2ccc(N3CCC(C)CC3)c([N+](=O)[O-])c2)n1N,"inconclusive [inhibitor, single point]",
CCOC(=O)[C@@H]1[C@H]2COc3ccc(Br)cc3[C@H]2N2C(=O)N(c3ccc(F)cc3)C(=O)[C@@]12C,inactive,
Cc1sc2ncnc(SCC(=O)NCC(C)C)c2c1C,"inconclusive [inhibitor, single point]",
CC1(C)CC(=O)c2c(O)cc(OCC(=O)Nc3ccc(S(N)(=O)=O)cc3)cc2O1,"inconclusive [inhibitor, full curve]",
Nc1cc(-c2ccccc2)n2c(n1)nc1ccccc12,"inconclusive [inhibitor, single point]",
C/C(=N\OCC(=O)OC(C)C(=O)Nc1ccc(C)c(S(=O)(=O)N2CCOCC2)c1)c1ccc2c(c1)OCO2 (stereo not drawn),inactive,
Cc1ccc(-n2nc3c(=O)n(C(C)C(=O)NCc4ccccc4Cl)nc(C)c3c2C)cc1 (stereo not drawn),"inconclusive [inhibitor, single point]",
O=C1c2ccccc2-c2n[nH]c(=O)c3ccc(N4CCCCC4)c1c23,active: 11.2 µM,
Cc1ccc(-n2cccn2)c(CN2CCC(CO)(CCc3ccccc3)CC2)c1,inactive,
CCN(CC)c1ccc(N2C(=O)CSC2=S)cc1,inactive,
C[C@@H](C(=O)NCc1ccc(S(C)(=O)=O)cc1)[C@H]1C[C@]1(C)[C@H](NC(=O)OCc1ccccc1)c1ccccc1,,inactive: 0.94% [at 8.37 µM]
C/C(=N\S(=O)(=O)c1ccc(C)cc1)N(C)C,inactive,
COC(=O)/C=c1\sc2ncnn2c1=O,inactive,
CC1c2ccsc2CCN1S(=O)(=O)c1ccccc1 (stereo not drawn),inactive,
O=C(C1CCN(S(=O)(=O)N2CCC3(CC2)OCCO3)CC1)N1CCc2ccccc2C1,inactive,
Cc1ccc(NC(=O)CN(C)C(=O)c2ccc3[nH]c4c(c3c2)CC(C)CC4)cc1 (stereo not drawn),"inconclusive [inhibitor, partial curve, poor fit]",
Cc1cc(Cl)ccc1OCC(=O)Nc1ccccc1CO,active: 3.16 µM,
O=C(CCCn1c(SCC(=O)c2ccc(Cl)cc2)nc2ccccc2c1=O)NCc1ccco1,"inconclusive [inhibitor, partial curve]",
CCOC(=O)CSC1=NC(=O)/C(=C\c2ccc(Cl)cc2)S1,"inconclusive [inhibitor, single point]",
c1ccc(N(c2ccccc2)c2nc(N3CCCC3)nc(-n3ccnc3)n2)cc1,"inconclusive [inhibitor, single point]",

Compound,Potency,"activity change, negative = inhibition"
O=c1[nH]c(/C=C/c2cccc([N+](=O)[O-])c2)c([N+](=O)[O-])c(=O)[nH]1,inactive,
O=C1CC(c2ccccc2)CC(O)=C1C=NCCCN1CCOCC1 (stereo not drawn),"inconclusive [inhibitor, partial curve]",
O=C1C2CCCN2C(=O)N1CCCN1CCN(c2ccc([N+](=O)[O-])cc2)CC1 (stereo not drawn),"inconclusive [inhibitor, single point]",
O=C(CCCn1c(=O)oc2ccccc21)Nc1ccccc1,inactive,
COc1ccc(NS(=O)(=O)c2cc(OC)ccc2OC)cc1,inactive,
CCOCCn1c(N2CCCC2)nc2c1c(=O)[nH]c(=O)n2C,inactive,
Cc1ccc(C(=O)NC(c2ccccc2)C(Cl)Cl)cc1 (stereo not drawn),"inconclusive [inhibitor, single point]",
Cc1ccc(N=C2CCCN2Cc2ccccc2)c(C#N)c1,"inconclusive [inhibitor, full curve, poor fit]",
O=c1cc[nH]c2ccc(Cl)cc12,,inactive: 4.9% [at 8.37 µM]
CCn1c(/C=C/c2ccccc2)nc2ccccc21,active: 7.94 µM,
C=CCn1c(Cc2csc(N)n2)nnc1SCC(=O)Nc1ccc(C(=O)OCC)cc1,"inconclusive [inhibitor, single point]",
O=C(CCNC(=O)c1ccccc1Cl)NCC(c1ccc(F)cc1)N1CCOCC1 (stereo not drawn),"inconclusive [inhibitor, full curve, poor fit]",
COc1cc(=O)n(C)c2c(OCC3OC(C)(C)OC3(C)C)cccc12 (stereo not drawn),inactive,
Cc1ccc(NS(=O)(=O)c2cccc(C(=O)Nc3cccnc3)c2)c(C)c1,"inconclusive [inhibitor, partial curve]",
COc1ccc2nc(NC(=O)Nc3cccc4ccccc34)sc2c1,inactive,
CC1CCCN(C(=O)c2ccc3c(=O)n(Cc4ccc5c(c4)OCO5)c(=S)[nH]c3c2)C1 (stereo not drawn),"inconclusive [inhibitor, single point]",
CCOC(=O)C1CCN(C(=O)c2oc3ccc(S(=O)(=O)N4CC(C)CC(C)C4)cc3c2C)CC1 (stereo not drawn),active: 4.47 µM,
N#CCCCc1cc2cc(F)ccc2cn1,inactive,
CCOC(=O)c1c(-c2ccccc2Cl)cn2ccccc12,"inconclusive [inhibitor, partial curve]",
CN(CC(=O)Nc1ccc(F)c(Cl)c1)S(=O)(=O)c1cccc2nsnc12,"inconclusive [inhibitor, partial curve]",
CS(=O)(=O)N1CCC(C(=O)Nc2cc(Cl)ccc2Cl)CC1,inactive,
CC(C)CC(=O)NC(=S)Nc1ccc(NC(=O)c2cccs2)cc1,"inconclusive [inhibitor, single point]",
O=C(Nc1ccc(Cl)cc1)N(Cc1nc2ccccc2c(=O)[nH]1)Cc1cccs1,"inconclusive [inhibitor, partial curve]",
